Source: article PMC5800298
No constants are given. Whether binding was seen depends on the method and setting. For some of these results: In cells and extracts the contact can be indirect. Some entries that bind do so weakly or less than the wild type. For some of these results: Where a sequence is shown, tags or fusion partners need not be part of it.

T1: PmDAM5-YFP^N / PmDAM5-YFP^C (Prunus mume) (UniProt G1UE18)
T1 sequence: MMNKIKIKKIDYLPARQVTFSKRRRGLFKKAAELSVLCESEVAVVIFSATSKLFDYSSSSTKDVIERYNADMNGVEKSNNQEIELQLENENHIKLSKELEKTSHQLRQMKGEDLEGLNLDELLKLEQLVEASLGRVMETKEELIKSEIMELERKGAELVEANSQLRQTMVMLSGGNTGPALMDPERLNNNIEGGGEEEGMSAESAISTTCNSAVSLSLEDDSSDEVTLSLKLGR

T2: PmDAM6-YFP^N / PmDAM6-YFP^C (Prunus mume) (UniProt B9A1S9)
T2 sequence: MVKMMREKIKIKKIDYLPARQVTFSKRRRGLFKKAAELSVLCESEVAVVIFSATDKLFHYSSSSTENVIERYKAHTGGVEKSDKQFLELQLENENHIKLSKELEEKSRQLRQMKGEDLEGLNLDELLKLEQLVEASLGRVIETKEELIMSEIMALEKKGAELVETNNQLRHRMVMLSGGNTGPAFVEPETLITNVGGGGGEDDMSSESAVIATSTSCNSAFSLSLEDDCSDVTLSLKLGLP

T3: PmDAM2 (Prunus mume) (UniProt G1UE20)
T3 sequence: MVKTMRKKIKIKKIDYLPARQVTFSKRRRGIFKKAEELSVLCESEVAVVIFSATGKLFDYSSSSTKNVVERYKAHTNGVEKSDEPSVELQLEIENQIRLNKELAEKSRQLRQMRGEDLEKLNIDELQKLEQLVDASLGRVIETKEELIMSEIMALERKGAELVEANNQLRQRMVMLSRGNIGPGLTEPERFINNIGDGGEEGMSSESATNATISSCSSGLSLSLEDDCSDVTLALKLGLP

T4: PmDAM3 (Prunus mume) (UniProt G1UE21)
T4 sequence: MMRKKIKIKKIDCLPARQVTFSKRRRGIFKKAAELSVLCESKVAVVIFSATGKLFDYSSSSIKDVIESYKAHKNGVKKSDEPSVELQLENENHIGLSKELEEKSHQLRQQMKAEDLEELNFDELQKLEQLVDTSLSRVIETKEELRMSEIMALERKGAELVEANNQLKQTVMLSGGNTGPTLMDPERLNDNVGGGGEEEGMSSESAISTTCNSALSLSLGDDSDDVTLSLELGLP

T5: PmDAM5 (Prunus mume) (UniProt G1UE18)
T5 sequence: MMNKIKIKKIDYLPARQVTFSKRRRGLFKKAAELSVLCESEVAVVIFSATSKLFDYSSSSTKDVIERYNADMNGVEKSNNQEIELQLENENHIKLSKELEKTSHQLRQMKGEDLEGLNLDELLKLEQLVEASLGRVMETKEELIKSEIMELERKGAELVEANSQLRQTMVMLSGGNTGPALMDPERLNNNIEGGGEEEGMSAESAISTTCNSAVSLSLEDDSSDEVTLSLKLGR

T6: PmDAM6 (Prunus mume) (UniProt B9A1S9)
T6 sequence: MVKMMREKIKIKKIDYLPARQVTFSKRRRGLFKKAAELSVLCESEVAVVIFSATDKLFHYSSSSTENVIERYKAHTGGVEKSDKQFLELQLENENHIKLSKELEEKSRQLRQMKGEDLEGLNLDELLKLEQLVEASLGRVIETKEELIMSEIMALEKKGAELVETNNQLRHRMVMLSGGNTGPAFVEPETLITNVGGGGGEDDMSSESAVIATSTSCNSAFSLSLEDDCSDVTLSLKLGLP

T7: PmDAM2-YFP^N / PmDAM2-YFP^C (Prunus mume) (UniProt G1UE20)
T7 sequence: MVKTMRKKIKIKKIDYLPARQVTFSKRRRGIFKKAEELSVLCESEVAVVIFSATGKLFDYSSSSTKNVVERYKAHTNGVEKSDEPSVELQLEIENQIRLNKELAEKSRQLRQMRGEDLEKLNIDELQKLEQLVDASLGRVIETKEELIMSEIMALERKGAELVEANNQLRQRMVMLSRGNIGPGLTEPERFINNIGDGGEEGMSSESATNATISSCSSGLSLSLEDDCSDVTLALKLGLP


Tests used:
[1] = biological target: T1, PmDAM5-YFP^N / PmDAM5-YFP^C (Prunus mume); assay: split reporter; BiFC with YFP^N and YFP^C fusions co-expressed in N. benthamiana leaves by agroinfiltration; confocal microscopy 2 days after infiltration, YFP excited at 514 nm
[2] = biological target: T2, PmDAM6-YFP^N / PmDAM6-YFP^C (Prunus mume); assay: as above
[3] = biological target: T3, PmDAM2 (Prunus mume); assay: two-hybrid; yeast two-hybrid; full-length PmDAMs in pGBKT7 (bait) and pGADT7 (prey); each interaction screened in triplicate; baits without auto-activation or toxicity
[4] = biological target: T4, PmDAM3 (Prunus mume); assay: as above
[5] = biological target: T5, PmDAM5 (Prunus mume); assay: as above
[6] = biological target: T6, PmDAM6 (Prunus mume); assay: as above
[7] = biological target: PmDAM1 (Prunus mume) (UniProt G1UE19); assay: as above
[8] = biological target: PmDAM1-YFP^N / PmDAM1-YFP^C (Prunus mume) (UniProt G1UE19); assay: split reporter; BiFC with YFP^N and YFP^C fusions co-expressed in N. benthamiana leaves by agroinfiltration; confocal microscopy 2 days after infiltration, YFP excited at 514 nm
[9] = biological target: T7, PmDAM2-YFP^N / PmDAM2-YFP^C (Prunus mume); assay: as above

binding [2] | Binder | binding [4] | binding [5] | binding [6] | other results
binds | PmDAM2-YFP^N / PmDAM2-YFP^C (protein, UniProt G1UE20 1-240) MVKTMRKKIKIKKIDYLPARQVTFSKRRRGIFKKAEELSVLCESEVAVVIFSATGKLFDYSSSSTKNVVERYKAHTNGVEKSDEPSVELQLEIENQIRLNKELAEKSRQLRQMRGEDLEKLNIDELQKLEQLVDASLGRVIETKEELIMSEIMALERKGAELVEANNQLRQRMVMLSRGNIGPGLTEPERFINNIGDGGEEGMSSESATNATISSCSSGLSLSLEDDCSDVTLALKLGLP |  |  |  | binding [1]: binds
 | PmDAM2 (protein, UniProt G1UE20 1-240) MVKTMRKKIKIKKIDYLPARQVTFSKRRRGIFKKAEELSVLCESEVAVVIFSATGKLFDYSSSSTKNVVERYKAHTNGVEKSDEPSVELQLEIENQIRLNKELAEKSRQLRQMRGEDLEKLNIDELQKLEQLVDASLGRVIETKEELIMSEIMALERKGAELVEANNQLRQRMVMLSRGNIGPGLTEPERFINNIGDGGEEGMSSESATNATISSCSSGLSLSLEDDCSDVTLALKLGLP | no binding | binds | binds weakly | binding [3]: no binding
binds | PmDAM6-YFP^N / PmDAM6-YFP^C (protein, UniProt B9A1S9 1-241) MVKMMREKIKIKKIDYLPARQVTFSKRRRGLFKKAAELSVLCESEVAVVIFSATDKLFHYSSSSTENVIERYKAHTGGVEKSDKQFLELQLENENHIKLSKELEEKSRQLRQMKGEDLEGLNLDELLKLEQLVEASLGRVIETKEELIMSEIMALEKKGAELVETNNQLRHRMVMLSGGNTGPAFVEPETLITNVGGGGGEDDMSSESAVIATSTSCNSAFSLSLEDDCSDVTLSLKLGLP |  |  |  | 
 | PmDAM6 (protein, UniProt B9A1S9 1-241) MVKMMREKIKIKKIDYLPARQVTFSKRRRGLFKKAAELSVLCESEVAVVIFSATDKLFHYSSSSTENVIERYKAHTGGVEKSDKQFLELQLENENHIKLSKELEEKSRQLRQMKGEDLEGLNLDELLKLEQLVEASLGRVIETKEELIMSEIMALEKKGAELVETNNQLRHRMVMLSGGNTGPAFVEPETLITNVGGGGGEDDMSSESAVIATSTSCNSAFSLSLEDDCSDVTLSLKLGLP |  |  | binds | 
 | PmDAM1 (protein, UniProt G1UE19 1-235) MKMMREKIKIKKIDNLPARQVTFSKRRRGIFKKAAELSVLCESEVAVVIFSATGKLFDYSSSSMKDVIERYQVHINGGEKFNERSIELQPEYENHIRLSKELKEKSRQLRQMKGEDLEELNFDELQKLEQLVDASLGRVIETKDERIMSEIMALERKRAELVKANKQLRQRMLFRGNIGPELMKPERLNNNFGGGGEEEGMSSESATSTTCNSAPSLSLEDDSDDVTLSLKLGLP | no binding | binds | binds | binding [7]: binds; binding [3]: binds
binds | PmDAM1-YFP^N / PmDAM1-YFP^C (protein, UniProt G1UE19 1-235) MKMMREKIKIKKIDNLPARQVTFSKRRRGIFKKAAELSVLCESEVAVVIFSATGKLFDYSSSSMKDVIERYQVHINGGEKFNERSIELQPEYENHIRLSKELKEKSRQLRQMKGEDLEELNFDELQKLEQLVDASLGRVIETKDERIMSEIMALERKRAELVKANKQLRQRMLFRGNIGPELMKPERLNNNFGGGGEEEGMSSESATSTTCNSAPSLSLEDDSDDVTLSLKLGLP |  |  |  | binding [8]: binds; binding [9]: binds; binding [1]: binds
 | PmDAM3 (protein, UniProt G1UE21 1-235) MMRKKIKIKKIDCLPARQVTFSKRRRGIFKKAAELSVLCESKVAVVIFSATGKLFDYSSSSIKDVIESYKAHKNGVKKSDEPSVELQLENENHIGLSKELEEKSHQLRQQMKAEDLEELNFDELQKLEQLVDTSLSRVIETKEELRMSEIMALERKGAELVEANNQLKQTVMLSGGNTGPTLMDPERLNDNVGGGGEEEGMSSESAISTTCNSALSLSLGDDSDDVTLSLELGLP | no binding | no binding |  | 
binds | PmDAM5-YFP^N / PmDAM5-YFP^C (protein, UniProt G1UE18 1-234) MMNKIKIKKIDYLPARQVTFSKRRRGLFKKAAELSVLCESEVAVVIFSATSKLFDYSSSSTKDVIERYNADMNGVEKSNNQEIELQLENENHIKLSKELEKTSHQLRQMKGEDLEGLNLDELLKLEQLVEASLGRVMETKEELIKSEIMELERKGAELVEANSQLRQTMVMLSGGNTGPALMDPERLNNNIEGGGEEEGMSAESAISTTCNSAVSLSLEDDSSDEVTLSLKLGR |  |  |  | 
 | PmDAM5 (protein, UniProt G1UE18 1-234) MMNKIKIKKIDYLPARQVTFSKRRRGLFKKAAELSVLCESEVAVVIFSATSKLFDYSSSSTKDVIERYNADMNGVEKSNNQEIELQLENENHIKLSKELEKTSHQLRQMKGEDLEGLNLDELLKLEQLVEASLGRVMETKEELIKSEIMELERKGAELVEANSQLRQTMVMLSGGNTGPALMDPERLNNNIEGGGEEEGMSAESAISTTCNSAVSLSLEDDSSDEVTLSLKLGR |  | no binding | binds weakly | 
